Experimental data as given in PubChem BioAssay AID485294 (National Center for Advancing Translational Sciences (NCATS), 2010).
The whole screen tested about 370,000 compounds, of which about 150 (0.041%) were called active. The inconclusive results got no clear call from the source; some entries with a clear call stand among them for comparison. The call rests on the fitted dose curve; in most records, active means well fitted inhibition curve with a large enough effect; inconclusive means small, poorly fitted or top-dose-only effect; inactive means flat fitted curve, though single readings scatter. Potencies of inconclusive entries are left out as doubtful fits.

biological target: Beta-lactamase (Escherichia coli (strain K12)) (UniProt P00811); assay: qHTS Inhibitors of AmpC Beta-Lactamase (assay with detergent); conditions: AmpC hydrolysis of nitrocefin, absorbance 480 nm, 0.01% Triton; activity change, negative = inhibition: at 114 µM (top of the series); further: nearly all actives have a fitted effect of over 25% in size;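 on activity change, negative = inhibition: 0% = no-compound wells and -100% = no-enzyme wells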
Procedure, shortened: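 20 mM phosphate pH 7.0 + 0.01% (detergent screen) or 0.0001% Triton X-100; 5.3 nM AmpC reagent; cpd preinc 15 min RT; nitrocefin (800 uM stock) to start; A480 q20 s × 4 min; Activity was normalised to no-enzyme and no-compound control wells.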
Potency means the concentration at half of the fitted maximal effect; tags describe the fitted curve by direction and shape.

Chain of UniProt P00811 (P00811 whole entry, looked up): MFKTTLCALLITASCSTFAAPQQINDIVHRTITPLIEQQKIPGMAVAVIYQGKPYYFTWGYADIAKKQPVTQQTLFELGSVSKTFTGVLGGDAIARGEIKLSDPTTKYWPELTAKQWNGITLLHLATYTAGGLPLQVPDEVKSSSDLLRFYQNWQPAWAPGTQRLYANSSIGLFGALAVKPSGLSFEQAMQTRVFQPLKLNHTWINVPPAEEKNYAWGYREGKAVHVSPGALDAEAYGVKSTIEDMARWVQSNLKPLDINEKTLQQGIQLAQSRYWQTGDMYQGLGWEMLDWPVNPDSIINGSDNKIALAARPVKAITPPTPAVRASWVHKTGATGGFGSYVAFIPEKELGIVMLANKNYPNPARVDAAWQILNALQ

Row | SMILES | Potency | activity change, negative = inhibition
1 | Cc1cc(C(=O)CSc2nnc(NCc3ccccc3)s2)c(C)n1C | inconclusive [inhibitor, single point] | –
2 | Cc1[nH]c2ccccc2c1C(=O)C(C)OC(=O)c1ccccc1NCCO (configuration not stated) | inconclusive [inhibitor, full curve, poor fit] | –
3 | COc1cccc(NC(=O)c2ccc3nc(C)sc3c2)c1 | – | inactive: -6.61%
4 | COc1ccc(CNC(=O)c2csc(Cc3ccccc3)n2)cc1 | – | inactive: 0.676%
5 | O=C(O)Cn1c(=O)c(-c2ccccc2)nc2ccccc21 | – | inactive: -12.4%
6 | CN1CCc2c(sc(NC(=O)C3COc4ccccc4O3)c2C(N)=O)C1 (configuration not stated) | – | inactive: -5.36%
7 | COC(=O)c1ccccc1S(=O)(=O)NCc1nc2nc(C)cc(C)n2n1 | – | inactive: -6.16%
8 | Nc1cc(=O)[nH]c(=O)n1CC1CC1 | inconclusive [inhibitor, single point] | –
9 | N#C/C(=C1\C(=O)Nc2c(Cl)cc(Cl)cc21)c1nnc2n1CCCCC2 | inconclusive [inhibitor, single point] | –
10 | CC(C)N1C(=O)S/C(=C/c2ccc(Sc3nc4ccccc4[nH]3)o2)C1=O | inconclusive [inhibitor, full curve, poor fit] | –
11 | Cn1c(C(=O)NCc2ccco2)cc2c(=O)[nH]c3ccccc3c21 | inconclusive [inhibitor, partial curve, poor fit] | –
12 | Cc1n[nH]c(C)c1S(=O)(=O)N(CC(=O)N1CCc2ccccc21)c1ccc(C(C)C)cc1 | inconclusive [inhibitor, full curve] | –
13 | CN1CCc2c(sc(NC(=O)c3ccc(C(=O)c4ccccc4)cc3)c2C(N)=O)C1 | inconclusive [inhibitor, full curve] | –
14 | Cc1ccc(NC(=O)c2sc3nc4c(c(-c5ccco5)c3c2N)CCC4)cc1 | – | inactive: 4.1%
15 | CCCNC(=O)c1cc(S(=O)(=O)N2CCc3ccccc32)ccc1F | inconclusive [inhibitor, single point] | –
16 | COc1ccc(C(=O)Nc2ccc(C)cc2C(=O)c2ccccc2)cc1 | inconclusive [inhibitor, single point] | –
17 | Cc1ccc(S(=O)(=O)N2CCCCC2)cc1C(=O)N(C)CC(=O)Nc1cccc(F)c1 | inconclusive [inhibitor, full curve, poor fit] | –
18 | COc1cnn(-c2ccc(Br)cc2)c(=O)c1SCc1ccccc1 | – | inactive: -2.39%
19 | COc1ccc(CCNC(=O)CSc2nc3[nH]ncc3c(=O)[nH]2)cc1OC | – | inactive: 7.62%
20 | CCC(C)NC(=S)N(Cc1cc2cc(C)ccc2n2nnnc12)CC(C)(C)NC(C)C (configuration not stated) | – | inactive: -1.72%
21 | Cc1ccc(NC(=O)CN2C(=O)COc3ccc(S(=O)(=O)N4CCCCC4)cc32)cc1N(C)C | – | inactive: 13.5%
22 | CC(C)c1nnc(N2C(=O)c3oc4ccccc4c(=O)c3C2c2ccco2)s1 (configuration not stated) | inconclusive [inhibitor, partial curve] | –
23 | Cc1ccccc1OCc1nc(-c2ccc(NC(=O)c3ccc4c(c3)OCO4)cc2)no1 | inconclusive [inhibitor, partial curve] | –

Row | SMILES | Potency | activity change, negative = inhibition
24 | CN(C)c1ccc(/C=C(\C#N)C(=O)NCc2ccco2)cc1 | inconclusive [inhibitor, full curve, poor fit] | –
25 | Cc1ccc(NC(=S)NC(=O)c2c(-c3ccccc3Cl)noc2C)cc1 | – | inactive: 0.99%
26 | CCOC(=O)C1CCN(C(c2cc(OC)c(OC)c(OC)c2)c2sc3nc(C)nn3c2O)CC1 (configuration not stated) | inconclusive [inhibitor, full curve] | –
27 | COc1ccc(C(=O)NCc2nnc(SCC(=O)N3CCC(C)CC3)o2)cc1OC | inconclusive [inhibitor, full curve, poor fit] | –
28 | CC1CC1C(=O)OCC(=O)NC(=O)NCc1ccco1 (configuration not stated) | inconclusive [inhibitor, full curve, poor fit] | –
29 | Cc1cc(C(=O)OCC(=O)N2CCc3ccccc32)c(C)o1 | inconclusive [inhibitor, full curve, poor fit] | –
30 | COc1ccc(-n2c(=O)c3c(c4cc(OC)ccc4n3C)n(Cc3cc(C)ccc3C)c2=O)cc1 | – | inactive: 10.3%
31 | COc1ccc(/C=C/C=C2\NC(=S)NC2=O)cc1 | inconclusive [inhibitor, single point] | –
32 | O=C1CC(Nc2ccccc2)C(=O)N1CCc1ccccc1 (configuration not stated) | inconclusive [inhibitor, single point] | –
33 | CCn1c(SCc2cccc(C(=O)O)c2)nnc1-c1ccc(Cl)cc1 | inconclusive [inhibitor, full curve, poor fit] | –
34 | CCOC(=O)C1CCN(C(=O)C2(NC(=O)Nc3ccccc3Cl)CCCCC2)CC1 | inconclusive [inhibitor, single point] | –
35 | NC1=NN=C(N2N=C(c3ccc(Br)cc3)CC2(O)C(F)(F)F)n2ncnc2C1 (configuration not stated) | – | inactive: -11.3%
36 | CCc1ccccc1NC(=O)CNC(=O)c1cccc(S(=O)(=O)N2CCN(Cc3ccccc3)CC2)c1 | inconclusive [inhibitor, full curve, poor fit] | –
37 | N#Cc1ccc(C(=O)NCC2CCCCC2)cc1 | – | inactive: 1.82%
38 | O=[N+]([O-])c1cc(C(F)(F)F)ccc1NCCOc1ccccc1 | inconclusive [inhibitor, full curve, poor fit] | –
39 | CCOC(=O)c1cc2c(C(F)(F)F)cc(-c3ccccc3)nc2o1 | inconclusive [inhibitor, partial curve, poor fit] | –
40 | Cn1c(=O)n(C/C=C/c2ccccc2)c(=O)c2c1nc1n2CCN1c1ccccc1 | – | inactive: 21.2%
41 | CCOC(=O)c1ccc(COC(=O)CNC(=O)CNC(=O)c2ccc(OC)cc2)o1 | inconclusive [inhibitor, full curve] | –
42 | O=C(COc1coc(CN2CCc3ccccc32)cc1=O)Nc1cccc(F)c1 | inconclusive [inhibitor, full curve, poor fit] | –
43 | CCCC1C2C(=O)N(c3ccccc3OC)C(=O)C2ON1c1ccccc1 (configuration not stated) | inconclusive [inhibitor, partial curve, poor fit] | –
44 | CCCCOc1ccc(CNC(=O)C2COc3ccc(OC)cc3C2)cc1 (configuration not stated) | – | inactive: 6.67%
45 | CS(=O)(=O)N1Cc2ccccc2CC1C(=O)OCC(=O)Nc1ccc2ccccc2c1 (configuration not stated) | inconclusive [inhibitor, single point] | –
46 | Cc1cc(Br)ccc1OCC(=O)NNC(=O)Cc1ccccc1 | inconclusive [inhibitor, partial curve] | –

Row | SMILES | Potency | activity change, negative = inhibition
47 | COc1ccc(Cl)cc1NC(=O)c1cnc2sccn2c1=O | inconclusive [inhibitor, full curve, poor fit] | –
48 | CCOCCCNC(=O)C(NC(=O)c1ccc(=O)[nH]c1)c1ccc(C)cc1 (configuration not stated) | inconclusive [inhibitor, partial curve] | –
49 | COc1ccccc1NC(=O)CSc1ccc2nnc(CCNC(=O)c3ccccc3)n2n1 | – | inactive: 2.4%
50 | CCN(CC)c1ccc2cc(-c3nc(-c4ccc(OC)cc4)cs3)c(=O)oc2c1 | inconclusive [inhibitor, partial curve, poor fit] | –
51 | CCCCC(=O)Nc1ccc(C(=O)NCc2ccncc2)cc1 | inconclusive [inhibitor, partial curve] | –
52 | COc1cccc(-c2nc(CS(=O)CC(=O)N3CCC4(CC3)OCCO4)c(C)o2)c1 (configuration not stated) | inconclusive [inhibitor, full curve, poor fit] | –
53 | CCC(C)NC(=O)C1CCC(CNS(=O)(=O)c2ccccc2)CC1 (configuration not stated) | inconclusive [inhibitor, single point] | –
54 | CCNC(=O)CSc1nc2ccccc2c(=O)n1-c1cc(OC)ccc1OC | inconclusive [inhibitor, full curve, poor fit] | –
55 | C=Cn1ccnc1P(=S)(c1ccc2c(c1)c1ccccc1n2CC)c1nccn1C=C | – | inactive: 0.276%
56 | CCN(CC(=O)Nc1ccccc1-c1ccccc1)Cc1nc2ccccc2c(=O)[nH]1 | – | inactive: -9.89%
57 | COc1ccc(C2c3[nH]c4ccccc4c3CCN2C(=O)Cc2nonc2C)c(F)c1 (configuration not stated) | – | inactive: -3.48%
58 | COc1ccc(S(=O)(=O)N2CCN(C/C=C/c3ccccc3)CC2)cc1NC(C)=O | inconclusive [inhibitor, full curve] | –
59 | COc1cc(C)c(CN2CCCCC2CO)cc1C (configuration not stated) | inconclusive [inhibitor, partial curve] | –
60 | O=C(Cc1cccc(F)c1)Nc1ccc2c(c1)CCC2 | inconclusive [inhibitor, full curve, poor fit] | –
61 | C=CCSc1nc2c(c(=O)[nH]1)C(C(C)C)C(C#N)=C(N)O2 (configuration not stated) | inconclusive [inhibitor, full curve, poor fit] | –
62 | Cc1nn(-c2ccccc2)c(NC(=O)c2cccs2)c(-c2ccccc2)c1=O | inconclusive [inhibitor, single point] | –
63 | Oc1oc(-c2ccco2)nc1C=Nc1ccccc1 | inconclusive [inhibitor, full curve] | –
64 | Cc1cccc(CSCCNC(=O)c2ccc(CN3CCOCC3)cc2)c1 | inconclusive [inhibitor, full curve, poor fit] | –
65 | c1ccc(C2=Nc3cccnc3C(c3ccccc3)=NN2)cc1 | – | inactive: 1.46%
66 | CCOC(=O)Cn1c(=O)oc2cc(S(=O)(=O)N3CCCC(C(=O)OCC)C3)ccc21 (configuration not stated) | inconclusive [inhibitor, full curve, poor fit] | –
67 | COc1ccccc1N1CCN(C(=O)CCCC2=NS(=O)(=O)c3ccccc3N2)CC1 | inconclusive [inhibitor, full curve, poor fit] | –
